One data set relates to MDA-MB-231. Description: Cytotoxicity in vitro (CellTiter-Glo viability), MDA-MB-231. The class given is cell-based, human. Conditions: MDA-MB-231 (TNBC). For orientation: In ATP-based viability assays light output follows the ATP content of the culture.
In the next data set the test system is MCF-7. Description: Cytotoxicity in vitro (CellTiter-Glo viability), MCF-7. The class given is cell-based, human. To be noted: MCF-7 (ER+/PR+/HER2− Breast), 72 hours.
Data set [1] concerns the target T1, cell surface ROR1 on Jeko-1 cells (Homo sapiens, UniProt Q01973).
T1 construct: The Jeko-1 cell line, from mantle cell lymphoma, is a suspension cell line; host or cells: Jeko-1 (human mantle cell lymphoma)
Description: Cell surface ROR1 expression during internalization, Jeko-1 cells. The format is cell-based. Conditions: up to 4 hours.

A further data set relates to Ramos. Description: Cytotoxicity in vitro (CellTiter-Glo viability), Ramos. The format is cell-based, human. Conditions: Ramos (Burkitt's), 72 hours.
A further data set deals with Jeko-1 cells. Description: Internalization by Jeko-1 cells (pulse-chase flow cytometry). The format is cell-based, human. Conditions: Jeko-1 cells. As for the experimental part: Multiple methods were used to determine antibody internalization. In one approach, internalization was measured using a pulse-chase methodology that quantitates non-internalized, cell surface antibody at 15, 30, 60, 120, and 240 minutes using flow cytometry. Jeko-1 cells were grown and harvested prior to confluency, washed with cold PBS and resuspended at 1×10^7 in cold FACS buffer (PBS+2% FBS-Fisher/Gibco Cat. No. 16140071). 1×10^6 cells were added to microcentrifuge tubes or wells. Internalization of Ab1 and ADC constructs by the cells was determined at saturating antibody concentrations, using 30 μg/ml for Jeko-1 cells and 100 μg/mL for MDA-MB-231 cells. 10× stock solutions of ADC constructs or Ab1 were prepared (300 μg/ml for use with Jeko-1 cells or 1 mg/ml for use with MDA-MB-231 cells) and 10 μL of sample or buffer control was added to the following (adding additional tubes for each time point): • a) Unstained • b) Secondary antibody only • c) Negative Control hIgG mAb at 30 μg/ml—time 0 • d) Positive Control ADC construct or Ab1 at 30 μg/ml—time 0 • e) ADC construct or Ab1—time point 1 • f) ADC construct or Ab1—time point 2, etc.
Cells and antibody were incubated on ice for 20 minutes, spun at 300×g for 4 minutes, washed twice with 200 μL of FACS buffer, and resuspended in 100 μL of FACS buffer. The samples were incubated at 37° C. for 15, 30, 60, 120, and 240 minutes, as indicated above. Internalization was terminated by transferring the samples to ice. A time course for antibody internalization was generated for each test article as described above, after which antibody remaining on the cell surface was detected using a PE-labeled secondary antibody. Cells were spun at 250×g, washed twice with FACS buffer and resuspended in 100 μL of FACS buffer. […] The median fluorescent intensity (MFI) was quantitated and the degree of receptor internalization was determined using the amount of the antibody or ADC present at each time point when compared to the amount present at time=0. […]
In general terms: Flow cytometry measures light scatter and fluorescence of single cells or particles in a stream.

The test system of a further data set is HOS. Put plainly: Cytotoxicity in vitro (CellTiter-Glo viability), HOS. The class given is cell-based, human. Conditions: HOS (OS), 72 hours.
The subject of another data set is DU4475. Description: Cytotoxicity in vitro (CellTiter-Glo viability), DU4475. The class given is cell-based, human. To be noted: DU4475 (TNBC), 72 hours.
For another data set, the system named is MDA-MB-231 xenograft. Description: MDA-MB-231 human TNBC mammary fat pad xenograft model. Conditions: 47 days. The format is in vivo, mouse. On the procedure: NCR mice were subcutaneously injected in the mammary fat pad with MDA-MB-231 cells (ROR1-positive human triple negative breast cancer (TNBC) cells) in a cell suspension in matrigel. When palpable tumors were observed (at approximately 250 mm^3), the animals were randomized into three different groups, 9 mice/group: vehicle control, 1 mg/kg ADC-A IV qw, and 5 mg/kg ADC-A IV qw. The mice received 5 total treatments and tumors were harvested 24 h after the last treatment. Mean tumor growth inhibition (TGI) was calculated utilizing the above formula.
(In general: A xenograft is tissue or cells of one species grown in another, often human tumour cells in immunodeficient mice.)

“And” between values parts separate entries of the source, which are not always exact repeats. Equal entries are not always repeated.

T1 sequence (Q01973 30-937): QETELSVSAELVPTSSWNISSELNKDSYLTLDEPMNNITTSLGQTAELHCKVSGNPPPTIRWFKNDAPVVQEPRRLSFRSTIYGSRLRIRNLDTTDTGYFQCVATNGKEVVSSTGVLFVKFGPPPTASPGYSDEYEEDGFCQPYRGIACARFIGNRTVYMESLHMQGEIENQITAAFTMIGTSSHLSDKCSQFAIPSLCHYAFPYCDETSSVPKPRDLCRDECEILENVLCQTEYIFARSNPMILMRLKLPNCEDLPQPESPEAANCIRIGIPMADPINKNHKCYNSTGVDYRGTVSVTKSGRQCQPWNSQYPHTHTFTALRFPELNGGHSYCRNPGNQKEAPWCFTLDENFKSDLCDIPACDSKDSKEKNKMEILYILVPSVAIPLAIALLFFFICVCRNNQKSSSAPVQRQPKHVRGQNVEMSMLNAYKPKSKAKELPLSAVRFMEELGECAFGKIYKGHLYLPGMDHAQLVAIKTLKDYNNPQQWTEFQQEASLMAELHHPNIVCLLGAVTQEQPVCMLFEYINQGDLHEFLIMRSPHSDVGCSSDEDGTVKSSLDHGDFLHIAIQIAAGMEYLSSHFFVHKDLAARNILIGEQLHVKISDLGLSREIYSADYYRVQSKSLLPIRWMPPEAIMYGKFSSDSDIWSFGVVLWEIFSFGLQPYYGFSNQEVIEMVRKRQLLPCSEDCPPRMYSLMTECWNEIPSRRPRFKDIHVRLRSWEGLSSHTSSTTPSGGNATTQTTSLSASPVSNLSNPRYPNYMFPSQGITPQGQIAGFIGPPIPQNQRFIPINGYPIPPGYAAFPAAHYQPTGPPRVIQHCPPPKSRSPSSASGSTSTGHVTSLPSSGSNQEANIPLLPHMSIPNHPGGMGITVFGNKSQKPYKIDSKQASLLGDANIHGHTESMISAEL

B1: ADC-A: Ab1 conjugated via MAL (mc)-VC-PAB linker to MMAE (conjugate)
heavy: QVQLQESGPGLVKPSQTLSLTCTVSGYAFTAYNIHWVRQAPGQGLEWMGSFDPYDGGSSYNQKFKDRLTISKDTSKNQVVLTMTNMDPVDTATYYCARGWYYFDYWGHGTLVTVSS[skipping human IgG1 constant region]
light: DIVMTQTPLSLPVTPGEPASISCRASKSISKYLAWYQQKPGQAPRLLIYSGSTLQSGIPPRFSGSGYGTDFTLTINNIESEDAAYYFCQQHDESPYTFGEGTKVEIKRTVAAPSVFIFPPSDEQLKSGTASVVCLLNNFYPREAKVQWKVDNALQSGNSQESVTEQDSKDSTYSLSSTLTLSKADYEKHKVYACEVTHQGLSSPVTKSFNRGEC
B1: the EC50 with MDA-MB-231 (72 hours) is 106 nM; with MDA-MB-231 (96 hours (values marked *)), 58.4 nM and 46.7 nM; with MCF-7, 289 nM; with Ramos, 650 nM; in the data set on HOS, 126 nM and 148 nM; in the data set with DU4475, 248 nM. Also, the “cell surface ROR1 expression during treatment” value in data set [1] is “ROR1 expression was maintained, or slightly increased”. Moreover, the “internalization compared with Ab1 / ADC-A” value in the data set with Jeko-1 cells is “did not negatively impact binding or internalization”. The “mean TGI” value in the data set on MDA-MB-231 xenograft (1 mg/kg IV qw) was 56.4% at 1 mg/kg;; in the data set with MDA-MB-231 xenograft (5 mg/kg IV qw) it was 94.2% at 5 mg/kg.

(Values after patent USRE50631E1, “ROR1 antibody immunoconjugates” (VelosBio Inc., priority 2017, dated 2025).)
